# Experimental data: PubChem BioAssay AID1030 (National Center for Advancing Translational Sciences (NCATS), 2008)
# About 16,000 (7.3%) of roughly 220,000 compounds were called active. The inconclusive results got no clear call from the source; some entries with a clear call stand among them for comparison. The call rests on the fitted dose curve; in most records, active means well fitted inhibition curve with a large enough effect (not every such curve was filed as active); inconclusive means small, poorly fitted or top-dose-only effect, or another doubt; inactive means no such curve, though single readings can be large or run the other way. No potency is given beside an inconclusive call; the fits are too rough.
# Molecular target: Aldehyde dehydrogenase 1A1 (Homo sapiens) (UniProt P00352)
# UniProt P00352, sequence (P00352 whole entry, looked up): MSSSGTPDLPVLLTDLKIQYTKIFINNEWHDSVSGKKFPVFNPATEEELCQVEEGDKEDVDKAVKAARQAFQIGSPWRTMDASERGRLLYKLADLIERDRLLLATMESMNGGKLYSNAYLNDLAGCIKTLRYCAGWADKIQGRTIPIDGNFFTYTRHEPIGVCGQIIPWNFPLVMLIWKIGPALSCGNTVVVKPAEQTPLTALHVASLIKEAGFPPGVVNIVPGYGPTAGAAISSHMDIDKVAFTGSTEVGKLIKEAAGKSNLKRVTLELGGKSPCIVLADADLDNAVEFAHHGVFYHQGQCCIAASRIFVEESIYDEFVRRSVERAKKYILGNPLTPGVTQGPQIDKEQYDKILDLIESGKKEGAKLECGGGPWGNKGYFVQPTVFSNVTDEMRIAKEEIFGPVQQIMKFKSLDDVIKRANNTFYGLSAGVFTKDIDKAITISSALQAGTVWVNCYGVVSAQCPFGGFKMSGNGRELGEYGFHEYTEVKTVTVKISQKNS
# Assay: qHTS Assay for Inhibitors of Aldehyde Dehydrogenase 1 (ALDH1A1)
# Conditions: Purified ALDH1A1, NADH fluorescence, propionaldehyde substrate; series mostly up to 75.3 µM
# Potency means the concentration at half of the fitted maximal effect; tags describe the fitted curve by direction and shape.
row,Compound,Potency
1,O=C(CSc1nnc(-c2ccco2)n1Cc1ccccc1)c1ccccc1,"inconclusive [inhibitor, single point]"
2,CC(C)n1c(CN2CCN(Cc3ccccc3)CC2)nc2ccccc21,inactive
3,NC(=O)C1CC(=O)N(Cc2ccc3c(c2)OCO3)C(=Nc2ccccc2)S1 (stereo not given),"inconclusive [inhibitor, partial curve]"
4,N#CC1=C(N)S[C@@H](C(=O)c2ccc(F)cc2)[C@@H]1c1cccs1,"inconclusive [inhibitor, single point]"
5,COc1cc(SC)ccc1C(=O)N1CCN(c2ccc(O)cc2)CC1,"inconclusive [inhibitor, single point]"
6,CNC(=S)NNC(=O)c1ccccc1Br,"inconclusive [inhibitor, single point]"
7,O=C(CNC1CCCCC1)N1CCc2ccccc2C1,active: 11.2 µM
8,Clc1ccccc1-c1nnc2sc(-c3cccs3)nn12,active: 14.1 µM
9,CCC(CO)NCc1ccc(Br)cc1 (stereo not given),inactive
10,COc1ccc(-c2c[n+]3c4n2CCCCC4=C(c2ccc(Br)cc2)C3)cc1,"inconclusive [inhibitor, partial curve]"
11,COc1cc(OC)c(C2=NOC(C(=O)Nc3c(C)nn(CC(=O)N4CCCC4)c3C)C2)cc1Cl (stereo not given),inactive
12,COc1ccc(CCCC(=O)N/N=C/c2cccc(OC)c2O)cc1C,inactive
13,COc1ccc(C(=O)N2CCC3(CC2)CCN(c2ccncc2)CC3)cc1,inactive
14,CCOC(=O)C1CCCN(c2ncnc3c2oc2ccccc23)C1 (stereo not given),"inconclusive [inhibitor, single point]"
15,CC(C)C(=O)Nc1cccc(-c2cn3ccccc3n2)c1,"inconclusive [inhibitor, single point]"
16,COC(=O)c1ccc(C(NC(=O)OCc2ccccc2)/C(C)=C/[C@@H](C)C(=O)NCc2cc(F)cc(F)c2)cc1 (stereo not given in full),"inconclusive [inhibitor, single point]"
17,CC(C)c1ccc(CN(C(=O)/C=C/c2ccco2)C2CCS(=O)(=O)C2)cc1 (stereo not given),active: 17.8 µM
18,CC1CCN(Cc2nnnn2-c2cccc([N+](=O)[O-])c2)CC1,inactive
19,COC(=O)c1c(-c2cccc3ccccc23)csc1NC(=O)Cc1ccc(OC)c(OC)c1,inactive
20,Cc1ccc(C)c(N2CCN(CC(=O)Nc3ccc4[nH]c(=O)[nH]c4c3)CC2)c1,"inconclusive [inhibitor, single point]"
21,Cc1ccc(CN(CC(=O)NC2CCCC2)C(=O)CSc2nnc(COc3ccccc3)o2)cc1,"inconclusive [inhibitor, single point]"
22,CC(C)(C)NC(=O)[C@@H]1CC[C@@H]2[C@@H]3CC[C@@H]4NC(=O)C=C[C@@]4(C)[C@H]3CC[C@]21C,inactive
23,Cc1c(NS(=O)(=O)c2cc(NC(=O)CCN3CCCC(C)C3)ccc2Cl)c(=O)n(-c2ccccc2)n1C (stereo not given),inactive
24,O=S(=O)(Nc1ccncc1)c1ccc(Cl)cc1,inactive
25,CCN(CC)c1ccc(-c2nnc(SCC(=O)Nc3ccccc3C#N)n2-c2ccccc2)cc1,"inconclusive [inhibitor, single point]"

row,Compound,Potency
1,Brc1cccc(OCCCN2CCCCCC2)c1,active: 12.6 µM
2,O=C(C[n+]1cc(-c2ccc(Br)cc2)n2c1CCCCC2)c1ccccc1,"inconclusive [inhibitor, single point]"
3,CCN(CC)C(=O)c1ccc(-c2cccs2)s1,"inconclusive [inhibitor, partial curve]"
4,COc1ccc(-c2nc(CC(=O)O)cs2)cc1,"inconclusive [inhibitor, partial curve]"
5,O=C(CCN1CCCCC1)Nc1ccccc1,"inconclusive [inhibitor, single point]"
6,CCn1c2ccccc2c2nnc(SCC(=O)Nc3cc(C)on3)nc21,inactive
7,CCc1nnc(NC(=O)/C=C/c2ccc(C)o2)s1,"inconclusive [inhibitor, single point]"
8,COc1ccc(/C=C/C(=O)OCC(=O)Nc2ccc(N3CCOCC3)cc2)cc1OC,"inconclusive [inhibitor, single point]"
9,COc1ccc(S(=O)(=O)NCC2CCCN(C(=O)c3sccc3C)C2)cc1 (stereo not given),active: 0.178 µM
10,CCc1nnc(NC(=O)CSc2nnc(-c3ccccc3NC(=O)c3ccccc3)o2)s1,inactive
11,Cc1cc([N+](=O)[O-])nn1CC(=O)Nc1sc2c(c1C(N)=O)CCCC2,"inconclusive [inhibitor, single point]"
12,COc1cc(/C=C/C(=O)OCC(=O)Nc2ccc(C)c(S(=O)(=O)N3CCCCC3)c2)ccc1O,"inconclusive [inhibitor, single point]"
13,O=C(NC1CCCCC1)C(c1cccnc1)N(C(=O)CCl)c1ccc(F)cc1 (stereo not given),inactive
14,CCOC(=O)N/N=C/c1ccc(Oc2ccccc2)cc1,"inconclusive [inhibitor, single point]"
15,CN(CC(=O)Nc1ccc(S(=O)(=O)N2CCCC2)cc1)Cc1ccc(Cl)cc1Cl,"inconclusive [inhibitor, single point]"
16,COc1ccc2c(c1)C(c1ccc(C)o1)=NNC(c1cccnc1)=N2,"inconclusive [inhibitor, partial curve]"
17,CCOC(=O)c1cc(-c2ccccc2)n(CC(=O)O)c1C,"inconclusive [inhibitor, single point]"
18,COCC(=O)N(Cc1cc2ccc(C)cc2[nH]c1=O)c1ccc(OC)cc1,inactive
19,Brc1ccc(-c2nnc3n2CCCCC3)cc1,active: 12.6 µM
20,O=C(NCCCN1CCOCC1)c1c(O)c2ccccc2[nH]c1=O,inactive
21,COc1cccc(-c2nn(C)c3sc(C(=O)NCc4ccc(C)o4)cc23)c1,"inconclusive [inhibitor, full curve]"
22,CN1CCN(Cc2ccc(OCc3ccccc3)cc2)CC1,inactive
23,Cc1cc2cc(CNC(=O)c3ccc(S(=O)(=O)N4CCCCC4)cc3)ccc2n1C,"inconclusive [inhibitor, partial curve]"
24,Fc1ccc(CNC(=S)Nc2ccc(OC(F)F)cc2)cc1,"inconclusive [inhibitor, single point]"
25,COc1ccc(-c2cc(=O)c3c(OC)c(OC)c(OC)c(OC)c3o2)cc1,active: 1.41 µM

row,Compound,Potency
1,O=S(=O)(c1ccc(Cl)s1)N1CCC(Cc2ccccc2)CC1,inactive
2,COc1ccc(CNC(=O)c2cc3c(s2)CN(Cc2ccccc2)C3)cc1,inactive
3,O=C(NNc1ccccc1)C(=O)NNS(=O)(=O)c1ccc([N+](=O)[O-])cc1,inactive
4,O=C(COc1cccc(C(F)(F)F)c1)N1CCN(c2ccccc2O)CC1,"inconclusive [inhibitor, single point]"
5,CN1CCC(N(C)C(=S)NC(=O)C23CC4CC(CC(C4)C2)C3)CC1,"inconclusive [inhibitor, single point]"
6,COC(=O)C1C(=O)c2c([nH]c(C(=O)OCC3CCCO3)c2C)CC1C (stereo not given),"inconclusive [inhibitor, single point]"
7,COCCOC(=O)C1=C(C)N(Cc2ccccc2)C(=O)NC1c1ccc(OC)cc1 (stereo not given),inactive
8,COc1ccccc1C=NC(CO)C(O)c1ccc([N+](=O)[O-])cc1 (stereo not given),"inconclusive [inhibitor, single point]"
9,Cc1ccc(-c2nnn(CC(=O)NCCC3=CCCCC3)n2)cc1,active: 28.2 µM
10,CCCCN=Cc1c(C)[nH]n(-c2ccccc2)c1=S,active: 28.2 µM
11,CCOC(=O)N1CCC(Nc2ncnc3c2cnn3-c2ccccc2)CC1,"inconclusive [inhibitor, partial curve]"
12,CN(CCO)C(=O)c1ccc(-c2nn(C)c(=O)c3ccccc23)cc1,inactive
13,CCOC(=O)c1oc2nc3c(cc2c1N)CCCC3,"inconclusive [inhibitor, partial curve]"
14,CCCCn1c(SCC(=O)NCc2ccco2)nc2cc(S(N)(=O)=O)ccc21,active: 14.1 µM
15,COc1ccc(/C=C(\C#N)C(=O)N2CCOCC2)cc1Br,"inconclusive [inhibitor, single point]"
16,CCC(=O)N1CCN(CCN=CC2=C(O)CC(C)(C)CC2=O)CC1,"inconclusive [inhibitor, single point]"
17,CCOC(=O)c1oc2ccccc2c1NC(=O)COc1cccc(OC)c1,"inconclusive [inhibitor, single point]"
18,COc1ccc(CNc2ncnc3ccc(-c4ccoc4)cc23)c(OC)c1,"inconclusive [inhibitor, single point]"
19,Cc1cc(C)c2c(C)nn(-c3ccccc3)c2n1,"inconclusive [inhibitor, partial curve]"
20,O=C(/C=C/Nc1ccc(F)c(Cl)c1)c1ccco1,active: 28.2 µM
21,CC(OC(=O)C1CSC2(c3ccc(F)cc3)CCC(=O)N12)C(=O)NC(N)=O (stereo not given),"inconclusive [inhibitor, partial curve]"
22,COc1cccc(C2c3[nH]c4ccccc4c3CCN2C(=O)Cn2cncn2)c1OC (stereo not given),active: 9.46 µM
23,CC(=O)c1c(O)cc2n(c1=O)-c1ccc(Cl)cc1C2(C)C,"inconclusive [inhibitor, single point]"
24,CSc1ccccc1NC(=O)c1cc(C)on1,inactive
25,COc1ccc(CCN(C)CCCN2CC(c3ccccc3)CC2=O)cc1OC (stereo not given),inactive
